Measurements as given in the supplement of paper PMC10600219.
Values joined by “and” are separate entries in the source; they are usually repeats but may differ in a detail not shown here. Equal entries are not always repeated. Structures can show the parent of a compound that is named as a salt. The full ranking holds about 2,800 compounds; the median of “cell viability relative to vehicle” is about 0.98, and the lowest 2% start at about 0.45. Some of the results follow.

Each compound was assayed on NCI-H2228 alectinib-DTP (assay: cell viability relative to vehicle (fraction of vehicle); NCI-H2228 is an ALK-positive lung cancer line and DTP means drug-tolerant persister; higher = less growth inhibition). Conditions: 100 nM; treatment time 6 days.
How it was run: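 Drug-tolerant persister NCI-H2228 cells, produced by 13 days in 1000 nM of a targeted drug, and their parental counterparts were seeded into 384-well plates and, the following day, given the 3114-agent TargetMol anti-cancer compound library at 100 nM or DMSO vehicle. After 6 days, the CellTiter-Glo 3D Cell Viability Assay was used to read ATP. Each entry reports viability compared with vehicle-treated cells.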
In the case of `CCOc1ccc(Cc2cc([C@@H]3O[C@H](CO)[C@@H](O)[C@H](O)[C@H]3O)ccc2Cl)cc1` [Dapagliflozin], the cell viability is reported as 0.948.
`O=C(O)c1cc(=O)c2c(OCC(O)COc3cccc4oc(C(=O)O)cc(=O)c34)cccc2o1` [Sodium cromoglycate] gave a cell viability of 1.03.
`O=c1c(O)c(-c2ccccc2)oc2cc(O)cc(O)c12` [Galangin] gave a cell viability of 1.03.
`O=C(O)c1ccnc2ccccc12` [4-Quinolinecarboxylic acid] was tested, and the cell viability was 0.956.
With `Nc1nc(=O)c2c([nH]1)NCC(CNc1ccc(C(=O)N[C@@H](CCC(=O)O)C(=O)O)cc1)N2C=O` (stereo partly specified) [Calcium folinate] the cell viability was 1.1.
With `CCN1/C(=C/C(C)=O)Sc2ccc(OC)cc21` the cell viability was 0.958.
Work on `Cc1cc(C)cc(NC(=O)Cc2ccc(OC(C)(C)C(=O)O)cc2)c1` [Efaproxiral Sodium] yielded a cell viability of 0.938.
`Cc1ccc(O)c([C@H](CCN(C(C)C)C(C)C)c2ccccc2)c1` [Tolterodine tartrate] was tested, and the cell viability was 1.15.
Compound `Oc1c(Cl)cc(Cl)cc1Sc1cc(Cl)cc(Cl)c1O` [Bithionol] has a cell viability of 0.871.
`C=CCc1ccccc1OCC(O)CNC(C)C` (stereo unspecified) [Alprenolol] was tested, and the cell viability was 0.994.
`CC(=O)OC(C)C[N+](C)(C)C` (stereo unspecified) [Methacholine Chloride] showed a cell viability of 0.925.
`CCCCOc1ccc(CC(=O)NO)cc1` [Bufexamac] gave a cell viability of 0.882.
Compound `CCCC(C(=O)OCCN(CC)CC)(c1ccccc1)c1ccccc1` [Proadifen hydrochloride] has a cell viability of 0.801.
`C[C@@H]1CC[C@@]2(OC1)O[C@H]1C[C@H]3[C@@H]4CC=C5C[C@@H](O[C@@H]6O[C@H](CO)[C@@H](O)[C@H](O[C@@H]7O[C@H](CO)[C@@H](O)[C@H](O)[C@H]7O)[C@H]6O[C@@H]6O[C@@H](C)[C@H](O)[C@@H](O)[C@H]6O)CC[C@]5(C)[C@H]4CC[C@]3(C)[C@H]1[C@@H]2C` [Gracillin] gave a cell viability of 1.03.
In the case of `CO[C@H]1C(=O)[C@]2(C)[C@@H](OC)C[C@H]3OC[C@@]3(OC(C)=O)[C@H]2[C@H](OC(=O)c2ccccc2)[C@]2(O)C[C@H](OC(=O)[C@H](O)[C@@H](NC(=O)OC(C)(C)C)c3ccccc3)C(C)=C1C2(C)C` [Cabazitaxel], the cell viability is reported as 0.472.
`O=S(=O)(O)CCSSCCS(=O)(=O)O` [Dimesna] showed a cell viability of 0.881.
In the case of `CC(C)=CCC/C(C)=C/COc1ccc2ccc(=O)oc2c1` [Auraptene], the cell viability is reported as 1.12.
With `CC(C)(C)c1ccc(S(=O)(=O)NCc2ccc(C(=O)Nc3cccnc3)cc2)cc1` the cell viability was 0.98.
`Cc1ccccc1C(=O)N1CCc2cc(-c3nc(NC(=O)Cc4ccc5c(c4)OCO5)sc3C)ccc21` showed a cell viability of 1.15.
Compound `NC(=O)NO` [Hydroxyurea] has a cell viability of 0.96.
`Clc1ccccc1C(c1ccccc1)(c1ccccc1)n1ccnc1` [Clotrimazole] showed a cell viability of 1.06.
For `CO/N=C1\CN(c2nc3c(cc2F)c(=O)c(C(=O)O)cn3C2CC2)CC1CN` (stereo unspecified) [Gemifloxacin mesylate], the cell viability was 0.977.
Work on `C[C@H](CCC(=O)NCC(=O)O)[C@H]1CC[C@H]2[C@@H]3[C@H](O)C[C@@H]4C[C@H](O)CC[C@]4(C)[C@H]3C[C@H](O)[C@]12C` [Glycocholic acid] yielded a cell viability of 1.09.
`Clc1ccc(COC(Cn2ccnc2)c2ccc(Cl)cc2Cl)cc1` (stereo unspecified) [Econazole] showed a cell viability of 1.21.
`COc1cc2c(cc1OC)CN(CCc1ccc(NC(=O)c3cccc4c(=O)c5cccc(OC)c5[nH]c34)cc1)CC2` [Elacridar] gave a cell viability of 1.01.
With `CCN(CCCc1ccccc1)CCCc1ccccc1` [Alverine citrate] the cell viability was 1.1.
For `Cc1c(C)c2c(c(C)c1O)CC[C@@](C)(CCC[C@H](C)CCC[C@H](C)CCCC(C)C)O2` [Vitamin E], the cell viability was 1.05.
`Cc1cc(CS(=O)(=O)c2ccccc2)cc(OCc2ccc(CN3CCC[C@@H]3CO)cc2)c1` gave a cell viability of 0.965.
Compound `CCc1cc(/C(C)=N/OCc2ccc(C3CCCCC3)c(C(F)(F)F)c2)ccc1CN1CC(C(=O)O)C1` [Siponimod] has a cell viability of 0.931.
With `CC[C@]1(O)C[C@@H]2CN(CCc3c([nH]c4ccccc34)[C@@](C(=O)OC)(c3cc4c(cc3OC)N(C)[C@H]3[C@@](O)(C(=O)OC)[C@H](OC(C)=O)[C@]5(CC)C=CCN6CC[C@]43[C@@H]65)C2)C1` [Vinblastine sulfate] the cell viability was 0.603.
With `CC[C@H](CC[C@@H](C)[C@H]1CC[C@H]2[C@@H]3CC=C4C[C@@H](O[C@@H]5O[C@H](CO)[C@@H](O)[C@H](O)[C@H]5O)CC[C@]4(C)[C@H]3CC[C@]12C)C(C)C` [Sitogluside] the cell viability was 0.962.
For `CCn1c(-c2nonc2N)nc2cnc(Oc3cccc(NC(=O)c4ccc(OCCN5CCOCC5)cc4)c3)cc21`, the cell viability was 1.4.
For `CCN(CC)C(=O)N1CCN(C)CC1` [Diethylcarbamazine citrate], the cell viability was 1.03.
`Cn1cnc(N)c2ncnc1-2` [3-Methyladenine] gave a cell viability of 1.06.
In the case of `c1ccc2c(-c3cnn4cc(-c5ccc(N6CCNCC6)cc5)cnc34)ccnc2c1`, the cell viability is reported as 1.26 and 1.18.
With `CC(C)(Oc1ccc(C2CC2(Cl)Cl)cc1)C(=O)O` (stereo unspecified) [Ciprofibrate] the cell viability was 1.08.
For `CC(C)C[C@H](NC(=O)c1cc2ccccc2s1)C(=O)N1CCN(C(=O)[C@H](CO)NS(=O)(=O)c2ccc(Cl)cc2Cl)CC1`, the cell viability was 0.955.
`COc1ccc(Br)cc1NC(=O)Nc1cccc2c1ccn2Cc1ccnc(N)c1` was tested, and the cell viability was 1.06.
`C=CCN1CCCC1CNC(=O)c1cc2nn[nH]c2cc1OC` (stereo unspecified) [Alizapride hydrochloride] showed a cell viability of 1.01.
In the case of `Cc1ccc(C)c(OCCn2cc(C(=O)O)c3ccccc32)c1`, the cell viability is reported as 0.905.
In the case of `CC(C)c1onc(-c2c(Cl)cccc2Cl)c1COc1ccc(/C=C/c2cccc(C(=O)O)c2)c(Cl)c1`, the cell viability is reported as 1.08.
`CO[C@@H](C)Cn1c(=O)n(C)c2cnc3ccc(-c4cncc(C(C)(C)O)c4)cc3c21` gave a cell viability of 0.513.
`Nc1nc(Nc2ccc(S(N)(=O)=O)cc2)nn1C(=O)c1c(F)cccc1F` gave a cell viability of 1.03.
For `CC1=C(C(=O)O)N2C(=O)[C@@H](NC(=O)[C@H](N)c3ccc(O)cc3)[C@H]2SC1` [Cefadroxil], the cell viability was 1.04.
Work on `N#CC(=C(/N)Sc1ccccc1N)/C(C#N)=C(\N)Sc1ccccc1N` yielded a cell viability of 1.01.
Work on `Cc1[nH]c(/C=C2\C(=O)Nc3ccc(S(=O)(=O)Cc4c(Cl)cccc4Cl)cc32)c(C)c1C(=O)N1CCC[C@@H]1CN1CCCC1` yielded a cell viability of 1.
